Laboratory results published in PubChem BioAssay AID2451 (National Center for Advancing Translational Sciences (NCATS), 2010).
The whole screen tested about 290,000 compounds, of which about 2,100 (0.72%) were called active. The inconclusive results got no clear call from the source; some entries with a clear call stand among them for comparison. The call rests on the fitted dose curve; in most records, active means well fitted inhibition curve with a large enough effect; inconclusive means small, poorly fitted or top-dose-only effect, or effect the other way; inactive means flat fitted curve, though single readings scatter. Potencies beside an inconclusive call are fits to weak or partial responses and may not hold up.

These molecules were tested against Fructose-bisphosphate aldolase (Giardia intestinalis (strain ATCC 50803 / WB clone C6)) (UniProt A8B2U2) (assay: qHTS Assay for Inhibitors of Fructose-1,6-bisphosphate Aldolase from Giardia Lamblia). Conditions: purified Giardia FBPA; activity, negative = inhibition: at 59.6 µM (top of the series) unless noted.
Sequence of UniProt A8B2U2 (A8B2U2 whole entry, looked up): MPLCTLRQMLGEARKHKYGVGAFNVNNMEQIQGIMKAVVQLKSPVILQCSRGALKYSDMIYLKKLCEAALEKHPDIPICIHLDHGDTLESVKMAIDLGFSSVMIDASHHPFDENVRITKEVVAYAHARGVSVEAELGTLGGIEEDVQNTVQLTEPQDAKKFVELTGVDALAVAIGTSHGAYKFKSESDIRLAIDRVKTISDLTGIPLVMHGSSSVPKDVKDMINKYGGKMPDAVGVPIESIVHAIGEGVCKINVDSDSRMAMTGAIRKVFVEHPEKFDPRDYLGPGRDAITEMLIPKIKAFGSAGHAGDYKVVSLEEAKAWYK
Summary of the method: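 40 nM FBPA preincubated 10 min at RT with compound (up to 57.5 uM final), then substrate plus GAPDH/TPI/NAD/arsenate coupling and diaphorase/resazurin added. Fluorescence read after 20 min at RT, 525/598 nm.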
Further: nearly all actives have a fitted effect of over 55% in size.
On the % scale 0 is the no-effect control and ±100 the full control effect; potency means the concentration at half of the fitted maximal effect; tags describe the fitted curve by direction and shape.

Structure (SMILES) | activity, negative = inhibition | Potency
CCn1cc(C(=O)NC2CCCCC2C)c(=O)c2ccc(C)nc21 (stereo not drawn) | inconclusive: 26.4% [activator] | –
Cc1nn(C)c(C)c1CCC(=O)N1CCCC(C(=O)c2cccc(OC(C)C)c2)C1 (stereo not drawn) | – | inactive
COc1ccc2nc(N3CCCCC3)c(C#N)cc2c1 | – | active: 17.8 µM
O=C(NNc1ccccn1)c1ccc(Cl)nc1 | – | inconclusive: 14.1 µM [inhibitor, partial curve]
CC(O)CNCCOc1ccccc1OCc1ccccc1 (stereo not drawn) | – | inconclusive: 5 µM [inhibitor, single point]
CCN1CCN(C(=O)C2CCCN(S(=O)(=O)c3ccc(OC)c(OC)c3)C2)CC1 (stereo not drawn) | – | inactive
COc1ccccc1-c1cnnc(N/N=C/c2ccc(-c3cccc(Br)c3)o2)n1 | – | inactive
COc1ccc(CCC(=O)Nc2ccc(S(=O)(=O)Nc3nccc(C)n3)cc2)cc1 | – | inactive
O=C(O)c1c2c(nc3ccc(S(=O)(=O)N4CCC(C(=O)NCc5ccccc5Cl)CC4)cc13)CCCC2 | – | inconclusive: 35.5 µM [inhibitor, partial curve]
Oc1ccc(/C(Cc2ccccn2)=N\Nc2ccccc2)c(O)c1 | – | inconclusive: 17.7 µM [inhibitor, single point]
Cc1ccc(NC2=C/C(=N/S(=O)(=O)c3cccs3)c3ccccc3C2=O)cc1 | – | inconclusive: 0.5 µM [inhibitor, full curve]
Cc1ccc(C(=O)c2no[n+]([O-])c2C(=O)c2ccc(C)cc2)cc1 | – | active: 15.8 µM
Cc1cccc(NC(=S)N2CCN(Cc3ccccc3)CC2)c1C | – | inactive
O=C(CN1CCOCC1)Nc1ccc(Cl)c(Cl)c1 | – | inconclusive: 17.8 µM [inhibitor, partial curve]
COc1ccc(-c2nc3ccccc3n2OCC(=O)O)cc1 | – | inconclusive: 17.7 µM [inhibitor, single point]
CC(C)CC(=O)N1CCN(Cc2ccccc2[N+](=O)[O-])CC1 | – | inconclusive: 8.89 µM [inhibitor, partial curve]
CCCCc1ccc(NC(=S)NCCCN2CCOCC2)cc1 | – | inconclusive: 35.4 µM [inhibitor, single point]
CC(=O)Nc1ccc(S(=O)(=O)NCCC(=O)Nc2ccc(C)c(F)c2)cc1 | – | inactive
COc1ccc(CNc2ccccc2SC)cc1OC | – | inconclusive: 19.9 µM [inhibitor, single point]
CN1CCc2c(sc(NC(=O)c3ccc(S(=O)(=O)N4CCc5ccccc54)cc3)c2C(N)=O)C1 | – | inconclusive: 15.8 µM [inhibitor, partial curve]
Cn1cccc1/C=N/N1CCN(c2ccccc2)CC1 | – | inconclusive: 19.9 µM [inhibitor, partial curve]
CCCn1c(N)c(N(CCOC)C(=O)c2ccccc2F)c(=O)[nH]c1=O | inconclusive: 34.4% [activator] | –
O=C(Nc1nc2cc3c(cc2s1)OCO3)C1CC1 | – | inactive
CCCCc1ccc(-c2c(C#N)c(N)nc3c2CCCC3)s1 | – | inactive

Structure (SMILES) | activity, negative = inhibition | Potency
COc1ccc(-c2nnc(NC(=O)c3ccc([N+](=O)[O-])o3)o2)c(OC)c1 | – | inconclusive: 22.4 µM [inhibitor, single point]
O=C(c1cc(-c2ccc(Cl)cc2)n(-c2ccc(Cl)cc2Cl)n1)N1CCOCC1 | – | inconclusive: 15.8 µM [inhibitor, single point]
CN(C)c1ccc(C2N3CC4(C)CN2CC(C)(C3)C4O)cc1 (stereo not drawn) | – | inactive
COc1cccc(CN(C(=O)Cc2c[nH]c3ccccc23)C(C(=O)NC2CCCCC2)c2cccs2)c1 (stereo not drawn) | – | inactive
CC(NCc1ccccc1C(F)(F)F)C(O)c1ccccc1 (stereo not drawn) | – | inconclusive: 15.8 µM [inhibitor, single point]
Cc1cc2nc(CS(=O)(=O)c3ccccc3)cc(=O)n2[nH]1 | – | inconclusive: 15.8 µM [inhibitor, partial curve]
COc1ccccc1CCNCc1ccc(OC)c(OC)c1OC | – | inconclusive: 17.7 µM [inhibitor, partial curve]
Nc1ccc(S(=O)(=O)NNC(=O)C(=O)NNc2ccccn2)cc1 | – | inconclusive: 2.81 µM [inhibitor, single point]
Cc1cc(C)nc(/N=C(\N)Nc2ccc(C(C)C)cc2)n1 | – | inactive
Cc1cc(S(=O)(=O)N2CCN(c3ccccn3)CC2)c(C)cc1Cl | – | inconclusive: 31.6 µM [inhibitor, partial curve]
CC(=O)c1ccc(N=Nc2c(C)[nH]n(-c3ccccc3)c2=O)cc1 | – | active: 7.08 µM
Cc1cc(C)cc(-n2cnc3cc(C(=O)O)ccc32)c1 | – | inconclusive: 15.8 µM [activator, partial curve]
CSc1ccccc1NS(=O)(=O)c1ccccc1 | – | inconclusive: 12.6 µM [inhibitor, partial curve]
COc1ccc(C(C)=O)cc1Cn1nnc(-c2ccccc2Br)n1 | – | inactive
N#Cc1c(N2CCN(C(=O)c3ccccc3Cl)CC2)nc(-c2ccccc2)c2c1CCCC2 | – | inactive
Cc1[nH][nH]c(=O)c1C(c1c(C)[nH][nH]c1=O)c1cn(C)c2ccccc12 | – | active: 2.81 µM
O=C(OCC(=O)N1CCN(C(=O)c2ccco2)CC1)c1ccccc1OCc1ccc(Cl)cc1 | – | inactive
Cc1ccc(-c2cc(-c3ccco3)c(C#N)c(=O)[nH]2)cc1 | – | inconclusive: 14.1 µM [inhibitor, partial curve]
COc1cc(S(=O)(=O)N2CCCCCC2)ccc1-n1cnnn1 | – | inconclusive: 15.8 µM [inhibitor, single point]
COc1ccc(CCNC(=O)CN2CCN(c3cccc(C(F)(F)F)c3)CC2)cc1 | – | inactive
CC(C)C(=O)N1CCN(c2ccc(NC(=O)c3ccc([N+](=O)[O-])o3)cc2)CC1 | – | inactive
Cc1cccc(C)c1NC(=S)/C(=C(\[O-])c1cccs1)[n+]1ccccc1 | – | inconclusive: 17.7 µM [inhibitor, single point]
Cc1cc(C)n2nc(SCC(=O)N/N=C/c3cccc(Br)c3)nc2n1 | – | inconclusive: 22.4 µM [inhibitor, single point]
CCN(CC)S(=O)(=O)c1ccc(NC(=S)Nc2ccccc2)cc1 | – | inconclusive: 31.6 µM [inhibitor, single point]
